# Laboratory results from the supplement of paper PMC8728848.
# This is one part of the list.
# B1: CML1 (Coprinopsis cinerea) (protein)
# chain: MAIFHTGSELFIITRGPGKLTLLTWGGLNNLRSVIGAIPTENTGVTKWAVSFSHNYTRFSFIWEGQGEACYQIGNGLTRSPVGRSWSSSSTIHWGSSTVITEDVTSVVPGAVNRDKVTTAYALPDNL
# What was measured:
# Assay in all cases: glycan array binding signal (z-score within array); higher = stronger binding
# Settings in all cases: glycan notation: IUPAC condensed, linker removed
# [1] = molecular target: GlcNAc(b1-2)[GlcNAc(b1-4)]Man(a1-3)[GlcNAc(b1-4)][GlcNAc(b1-2)Man(a1-6)]Man(b1-4)GlcNAc(b1-4)GlcNAc
# In short: (§1)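 The binding signal is a Z-score computed within each array and averaged over linkers. Arrays of the same protein sequence at different concentrations or buffers were also averaged together. Data originate from 3228 arrays in the Consortium for Functional Glycomics database, kept only where the protein sequence was available.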
# [2] = molecular target: GlcNAc(b1-2)[GlcNAc(b1-4)]Man(a1-3)[GlcNAc(b1-4)][GlcNAc(b1-2)[GlcNAc(b1-6)]Man(a1-6)]Man(b1-4)GlcNAc(b1-4)GlcNAc
# In short: as §1
# [3] = molecular target: GlcNAc(b1-2)[GlcNAc(b1-4)]Man(a1-3)[GlcNAc(b1-4)][GlcNAc(b1-2)[GlcNAc(b1-6)]Man(a1-6)]Man(b1-4)GlcNAc(b1-4)[Fuc(a1-6)]GlcNAc
# In short: as §1
# [4] = molecular target: GlcNAc(b1-2)[GlcNAc(b1-6)]Man(a1-6)[GlcNAc(b1-2)Man(a1-3)]Man(b1-4)GlcNAc(b1-4)GlcNAc
# In short: as §1
# [5] = molecular target: GlcNAc(b1-2)[GlcNAc(b1-6)]Man(a1-6)[GlcNAc(b1-2)Man(a1-3)]Man(b1-4)GlcNAc(b1-4)[Fuc(a1-6)]GlcNAc
# In short: as §1
# [6] = molecular target: GlcNAc(b1-2)[GlcNAc(b1-6)]Man(a1-6)[GlcNAc(b1-4)][GlcNAc(b1-2)Man(a1-3)]Man(b1-4)GlcNAc(b1-4)GlcNAc
# In short: as §1
# GlcNAc(b1-3)Fuc = molecular target: GlcNAc(b1-3)Fuc
# In short: as §1
# GlcNAc(b1-3)Gal = molecular target: GlcNAc(b1-3)Gal
# In short: as §1
# [7] = molecular target: GlcNAc(b1-3)Gal(b1-3)GalNAc
# In short: as §1
# GlcNAc(b1-3)Gal(b1-4)Glc = molecular target: GlcNAc(b1-3)Gal(b1-4)Glc
# In short: as §1
# [8] = molecular target: GlcNAc(b1-3)Gal(b1-4)GlcNAc
# In short: as §1
# [9] = molecular target: GlcNAc(b1-3)Gal(b1-4)GlcNAc(b1-2)Man(a1-3)[GlcNAc(b1-3)Gal(b1-4)GlcNAc(b1-2)Man(a1-6)]Man(b1-4)GlcNAc(b1-4)GlcNAc
# In short: as §1
# [10] = molecular target: GlcNAc(b1-3)Gal(b1-4)GlcNAc(b1-2)Man(a1-3)[GlcNAc(b1-3)Gal(b1-4)GlcNAc(b1-2)Man(a1-6)]Man(b1-4)GlcNAc(b1-4)[Fuc(a1-6)]GlcNAc
# In short: as §1
# [11] = molecular target: GlcNAc(b1-3)Gal(b1-4)GlcNAc(b1-2)[GlcNAc(b1-3)Gal(b1-4)GlcNAc(b1-6)]Man(a1-6)[GlcNAc(b1-3)Gal(b1-4)GlcNAc(b1-2)Man(a1-3)]Man(b1-4)GlcNAc(b1-4)GlcNAc
# In short: as §1
# [12] = molecular target: GlcNAc(b1-3)Gal(b1-4)GlcNAc(b1-3)Gal(b1-4)GlcNAc
# In short: as §1
# [13] = molecular target: GlcNAc(b1-3)Gal(b1-4)GlcNAc(b1-3)Gal(b1-4)GlcNAc(b1-2)Man(a1-3)[GlcNAc(b1-3)Gal(b1-4)GlcNAc(b1-3)Gal(b1-4)GlcNAc(b1-2)Man(a1-6)]Man(b1-4)GlcNAc(b1-4)GlcNAc
# In short: as §1
# [14] = molecular target: GlcNAc(b1-3)Gal(b1-4)GlcNAc(b1-3)Gal(b1-4)GlcNAc(b1-2)Man(a1-3)[GlcNAc(b1-3)Gal(b1-4)GlcNAc(b1-3)Gal(b1-4)GlcNAc(b1-2)Man(a1-6)]Man(b1-4)GlcNAc(b1-4)[Fuc(a1-6)]GlcNAc
# In short: as §1
# [15] = molecular target: GlcNAc(b1-3)Gal(b1-4)GlcNAc(b1-3)Gal(b1-4)GlcNAc(b1-2)[GlcNAc(b1-3)Gal(b1-4)GlcNAc(b1-3)Gal(b1-4)GlcNAc(b1-6)]Man(a1-6)[GlcNAc(b1-3)Gal(b1-4)GlcNAc(b1-3)Gal(b1-4)GlcNAc(b1-2)Man(a1-3)]Man(b1-4)GlcNAc(b1-4)[Fuc(a1-6)]GlcNAc
# In short: as §1
# [16] = molecular target: GlcNAc(b1-3)Gal(b1-4)GlcNAc(b1-3)Gal(b1-4)GlcNAc(b1-3)Gal(b1-4)GlcNAc(b1-2)Man(a1-3)[GlcNAc(b1-3)Gal(b1-4)GlcNAc(b1-3)Gal(b1-4)GlcNAc(b1-3)Gal(b1-4)GlcNAc(b1-2)Man(a1-6)]Man(b1-4)GlcNAc(b1-4)GlcNAc
# In short: as §1
# [17] = molecular target: GlcNAc(b1-3)Gal(b1-4)GlcNAc(b1-3)Gal(b1-4)GlcNAc(b1-3)Gal(b1-4)GlcNAc(b1-2)Man(a1-3)[GlcNAc(b1-3)Gal(b1-4)GlcNAc(b1-3)Gal(b1-4)GlcNAc(b1-3)Gal(b1-4)GlcNAc(b1-2)Man(a1-6)]Man(b1-4)GlcNAc(b1-4)[Fuc(a1-6)]GlcNAc
# In short: as §1
# [18] = molecular target: GlcNAc(b1-3)Gal(b1-4)GlcNAc(b1-3)Gal(b1-4)GlcNAc(b1-3)Gal(b1-4)GlcNAc(b1-2)[GlcNAc(b1-3)Gal(b1-4)GlcNAc(b1-3)Gal(b1-4)GlcNAc(b1-3)Gal(b1-4)GlcNAc(b1-6)]Man(a1-6)[GlcNAc(b1-3)Gal(b1-4)GlcNAc(b1-3)Gal(b1-4)GlcNAc(b1-3)Gal(b1-4)GlcNAc(b1-2)Man(a1-3)]Man(b1-4)GlcNAc(b1-4)[Fuc(a1-6)]GlcNAc
# In short: as §1
# [19] = molecular target: GlcNAc(b1-3)Gal(b1-4)GlcNAc(b1-3)Gal(b1-4)GlcNAc(b1-3)Gal(b1-4)GlcNAc(b1-3)Gal(b1-4)GlcNAc(b1-2)Man(a1-3)[GlcNAc(b1-3)Gal(b1-4)GlcNAc(b1-3)Gal(b1-4)GlcNAc(b1-3)Gal(b1-4)GlcNAc(b1-3)Gal(b1-4)GlcNAc(b1-2)Man(a1-6)]Man(b1-4)GlcNAc(b1-4)GlcNAc
# In short: as §1
# [20] = molecular target: GlcNAc(b1-3)Gal(b1-4)GlcNAc(b1-3)Gal(b1-4)GlcNAc(b1-3)Gal(b1-4)GlcNAc(b1-3)Gal(b1-4)GlcNAc(b1-2)Man(a1-3)[GlcNAc(b1-3)Gal(b1-4)GlcNAc(b1-3)Gal(b1-4)GlcNAc(b1-3)Gal(b1-4)GlcNAc(b1-3)Gal(b1-4)GlcNAc(b1-2)Man(a1-6)]Man(b1-4)GlcNAc(b1-4)[Fuc(a1-6)]GlcNAc
# In short: as §1
binder,measurement,setting,value
B1,glycan array binding signal (z-score),[1],-0.342
same,glycan array binding signal (z-score),[2],-0.343
same,glycan array binding signal (z-score),[3],-0.363
same,glycan array binding signal (z-score),[4],-0.334
same,glycan array binding signal (z-score),[5],-0.332
same,glycan array binding signal (z-score),[6],-0.339
same,glycan array binding signal (z-score),GlcNAc(b1-3)Fuc,-0.306
same,glycan array binding signal (z-score),GlcNAc(b1-3)Gal,-0.333
same,glycan array binding signal (z-score),[7],-0.31
same,glycan array binding signal (z-score),GlcNAc(b1-3)Gal(b1-4)Glc,-0.323
same,glycan array binding signal (z-score),[8],-0.329
same,glycan array binding signal (z-score),[9],-0.328
same,glycan array binding signal (z-score),[10],-0.327
same,glycan array binding signal (z-score),[11],-0.265
same,glycan array binding signal (z-score),[12],-0.335
same,glycan array binding signal (z-score),[13],-0.309
same,glycan array binding signal (z-score),[14],-0.299
same,glycan array binding signal (z-score),[15],-0.303
same,glycan array binding signal (z-score),[16],-0.317
same,glycan array binding signal (z-score),[17],-0.316
same,glycan array binding signal (z-score),[18],-0.264
same,glycan array binding signal (z-score),[19],-0.331
same,glycan array binding signal (z-score),[20],-0.296
